PMC4336329 (PLoS ONE, 2015)
About 2,200 (0.71%) of roughly 310,000 compounds showed an effect of 50% or more. Effects have a minus sign here. The list shows a part of the results.

What follows are compounds tested against human ether-à-go-go-related gene (hERG) potassium channel (human, UniProt Q12809) (assay: primary screen, population patch clamp on CHO cells stably expressing hERG).
Sequence of human ether-à-go-go-related gene (hERG) potassium channel (Q12809 whole entry, looked up): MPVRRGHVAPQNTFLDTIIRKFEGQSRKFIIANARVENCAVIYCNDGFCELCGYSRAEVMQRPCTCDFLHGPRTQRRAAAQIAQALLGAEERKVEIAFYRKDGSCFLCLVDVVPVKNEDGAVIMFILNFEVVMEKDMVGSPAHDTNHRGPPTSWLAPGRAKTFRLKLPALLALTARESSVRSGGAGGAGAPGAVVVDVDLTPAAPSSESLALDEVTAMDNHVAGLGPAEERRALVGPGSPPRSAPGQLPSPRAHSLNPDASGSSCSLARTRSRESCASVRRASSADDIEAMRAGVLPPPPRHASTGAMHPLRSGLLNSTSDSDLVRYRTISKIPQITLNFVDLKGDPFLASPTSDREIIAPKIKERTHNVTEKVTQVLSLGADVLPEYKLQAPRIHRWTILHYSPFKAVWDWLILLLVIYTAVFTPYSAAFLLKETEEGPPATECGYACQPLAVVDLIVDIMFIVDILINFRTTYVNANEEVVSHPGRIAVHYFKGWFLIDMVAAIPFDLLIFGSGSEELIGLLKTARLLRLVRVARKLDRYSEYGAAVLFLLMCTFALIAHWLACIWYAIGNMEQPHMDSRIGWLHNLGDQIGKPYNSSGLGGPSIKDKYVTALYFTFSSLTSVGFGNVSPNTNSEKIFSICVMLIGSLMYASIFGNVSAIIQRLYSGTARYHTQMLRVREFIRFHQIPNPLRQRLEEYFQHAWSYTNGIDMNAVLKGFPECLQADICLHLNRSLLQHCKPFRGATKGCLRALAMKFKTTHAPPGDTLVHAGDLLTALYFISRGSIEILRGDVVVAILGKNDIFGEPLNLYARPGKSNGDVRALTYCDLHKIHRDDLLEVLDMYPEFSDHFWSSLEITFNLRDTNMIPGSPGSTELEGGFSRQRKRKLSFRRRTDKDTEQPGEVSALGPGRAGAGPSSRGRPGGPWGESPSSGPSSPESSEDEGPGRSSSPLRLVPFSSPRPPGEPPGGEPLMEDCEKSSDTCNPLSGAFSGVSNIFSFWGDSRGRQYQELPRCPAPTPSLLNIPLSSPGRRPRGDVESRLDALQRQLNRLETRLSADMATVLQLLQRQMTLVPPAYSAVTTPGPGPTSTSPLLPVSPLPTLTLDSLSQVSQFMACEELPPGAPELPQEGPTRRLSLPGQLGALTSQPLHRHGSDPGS

Compound | hERG current change (%, negative = inhibition) at 1uM [%]
CNC(=O)c1nnn(-c2ccccc2)c1C(=O)NC | -0.417
Cc1ccc(Cl)cc1N1CCN(C(=O)CN(C2CCCCC2)S(C)(=O)=O)CC1 | 11.2
O=C(NNC(=O)c1c(F)cccc1F)c1ccccc1-n1cccc1 | 8.43
CCCN1CCN(C(=O)C2CCN(c3ncnc4c3nc3n4CCCCC3)CC2)CC1 | 13.3
CC(=O)Nc1nc(=S)n(-c2ccccc2)[nH]1 | 7.42
COC(=O)C1C2c3ccccc3OC1(C)N=c1s/c(=C/c3cn(C)nc3C)c(=O)n12 (centres unmarked) | 11.5
O=C(c1nc2ccccn2c1CNCCCn1ncc2ccccc21)N1CCOCC1 | 12.3
CCc1ccccc1NC(=S)N(CCCN1CCN(C)CC1)Cc1cccs1 | -7.26
CCN(CC)c1ccc2cc(-c3nnc(-c4ccccc4)o3)c(=O)oc2c1 | 7.29
COc1ccc(CCN2CC(C(=O)NCc3ccc(F)cc3)CC2=O)cc1OC (centres unmarked) | 6.95
CCC(C)NC(=O)CN1C(=O)CC(C)(C)S(=O)(=O)c2ccccc21 (centres unmarked) | 0.496
O=C(COC(=O)CNC(=O)c1ccc(Cl)cc1)Nc1ccc(Cl)cc1C(F)(F)F | 19.3
COc1ccccc1NC(=O)NCCN1CCN(C(=O)Nc2ccccc2OC)CC1 | 3.86
COc1ccc(CN2CCNC(=O)C2CC(=O)NCCCn2cccn2)cc1C (centres unmarked) | -19.8
CC(=O)c1ccc(NS(=O)(=O)c2ccc(C(C)(C)C)cc2)cc1 | 7.28
O=C(NC1CCCCC1)C1CCCN(c2nnnn2-c2ccccc2)C1 (centres unmarked) | 9.21
CCC1=C2CC[C@H]3C(=O)N(C)C(=O)[C@H]3[C@H]2[C@@]2(Cc3ccccc3)C(=NCCOC)OC(=O)N2C1=O | -11.2
Cc1cc(C)cc(OCc2nnc(SCC(=O)c3ccc(Br)cc3)o2)c1 | 1.82
COc1ccc(NS(=O)(=O)c2cc(C(=O)N3CCN(C(C)=O)CC3)ccc2Cl)cc1 | 13.2
O=C(O)c1c2c(nc3ccc(S(=O)(=O)N4CCC(C(=O)NCc5ccc(Cl)cc5)CC4)cc13)CCCC2 | 18.5
CCOC(=O)c1c(C)[nH]c(C(=O)OCC(=O)Nc2sc(C(=O)N(C)C)c(C)c2C(=O)OCC)c1C | -4.19
C=C1C(C(=O)Nc2ccc(OC)cc2)C1C(=O)Nc1ccc(OC)cc1 (centres unmarked) | 14.2
CCN(CC)CCCNc1nc(-n2nc(C)cc2C)nc2sc3c(c12)CC(C)(C)OC3 | 2.93
